# Test results reported in the supplement of paper PMC9446081.
# The whole screen tested about 39,000 compounds, of which about 220 (0.56%) showed activity. The list shows a part of the results.
# Test system: Escherichia coli K-12 BW25113
# Experiment: relative growth (OD600 normalised to plate interquartile mean) (fraction); higher = less growth inhibition, active = 0.2 or less
# Settings: 50 µM; LB; incubation time: overnight (16-24 h)
# 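Also: static incubation at 37 °C against the wild-type strain, values averaged over two biological replicates.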
row,SMILES,relative growth
1,O=C1O[C@@H](c2ccccc2)[C@@H](c2ccccc2)N2[C@@H](c3ccc(OCCO)cc3)[C@]3(C(=O)Nc4ccc(C#CC5=CCCCC5)cc43)[C@@H](C(=O)NC[C@H](O)c3ccccc3)[C@H]12,inactive: 1.08
2,CCCC1CC(C(=O)NC(C(C)Cl)C2OC(SC)C(O)C(O)C2O)N(C)C1.Cl (stereo unspecified),inactive: 0.809
3,Cc1cc(C(=O)Nc2ccc3c(c2)C(=O)N(C)[C@H]2CC[C@@H](CC(=O)NCC(F)(F)F)O[C@H]2CO3)no1,inactive: 1.05
4,O=C(c1ccc(-n2cnnn2)cc1)N1CCN([C@H]2CCS(=O)(=O)C2)CC1,inactive: 0.992
5,Cc1ccc(S(=O)(=O)N(C)C[C@@H]2OCCCC[C@@H](C)Oc3ccc(NC(=O)Nc4ccc(C(F)(F)F)cc4)cc3C(=O)N([C@@H](C)CO)C[C@H]2C)cc1,inactive: 1.04
6,COCC(=O)Nc1ccc2c(c1)C(=O)N(C)C[C@@H](OC)[C@H](C)CN(C(=O)Cc1ccccn1)[C@H](C)CO2,inactive: 1
7,[N-]=[N+]=Nc1ccccc1[C@H]1OC(c2ccc(OCCCO)cc2)=N[C@@]1(CCS(=O)(=O)c1ccccc1)C(=O)NC[C@@H](O)CO,inactive: 0.997
8,C[C@H]1CN([C@@H](C)CO)C(=O)Cc2cc(NC(=O)Nc3ccc4c(c3)OCO4)ccc2O[C@H]1CN(C)Cc1ccc(C(=O)Nc2ccccc2N)cc1,inactive: 1.03
9,COCC#Cc1cnc2c(c1)C(=O)N([C@H](C)CO)C[C@H](C)[C@@H](CN(C)S(=O)(=O)c1cccc(OC)c1)O2,inactive: 1
10,C[C@@H]1CCCCO[C@H](CN(C)C(=O)C2CCCCC2)[C@@H](C)CN([C@H](C)CO)C(=O)c2cc(NC(=O)c3ccccc3)ccc2O1,inactive: 0.991
11,Cc1ccc(S(=O)(=O)Nc2ccc3c(c2)CC(=O)N([C@@H](C)CO)C[C@H](C)[C@@H](CN(C)S(=O)(=O)c2ccc(F)cc2)O3)cc1,inactive: 0.988
12,C[C@@H]1CN([C@@H](C)CO)C(=O)c2cc(-c3cncnc3)cnc2O[C@H]1CN(C)C(=O)Nc1ccc2c(c1)OCO2,inactive: 0.969
13,COc1ccc(S(=O)(=O)N(C)C[C@@H]2OCCCC[C@@H](C)Oc3ccc(NS(=O)(=O)c4ccc(Cl)cc4)cc3C(=O)N([C@H](C)CO)C[C@H]2C)cc1,inactive: 1.03
14,O=C(/C=c1/nc2c([nH]c1=O)=NON2)c1ccccc1,inactive: 0.76
15,COc1ccc(CN(C)C[C@H]2OCCCC[C@H](C)Oc3ccc(NS(=O)(=O)c4ccccc4)cc3C(=O)N([C@H](C)CO)C[C@@H]2C)cc1,inactive: 1.02
16,O=C(NCc1ccccc1)C1=C[C@@H](c2ccc(Br)cc2)C[C@@H](OCc2ccc(CO)cc2)O1,inactive: 1.03
17,C[C@@H]1CN([C@H](C)CO)C(=O)c2cc(NS(C)(=O)=O)ccc2O[C@H]1CN(C)C(=O)Nc1ccc2c(c1)OCO2,inactive: 0.969
18,Cc1ccc(C#N)c(=O)[nH]1,inactive: 0.999
19,COc1ccc(CN(C)C[C@H]2OCCCC[C@H](C)Oc3ccc(NC(=O)Nc4ccc5c(c4)OCO5)cc3C(=O)N([C@@H](C)CO)C[C@H]2C)cc1,inactive: 0.965
20,COc1ccc(S(=O)(=O)N(C)C[C@@H]2Oc3ccc(NC(=O)CCN4CCOCC4)cc3CC(=O)N([C@H](C)CO)C[C@H]2C)cc1,inactive: 0.984
21,C=CCN1C[C@H](C(=O)O)CC1=O,inactive: 0.992

row,SMILES,relative growth
1,CCc1ccc(NC(=S)Nc2ccccc2C(C)C)cc1,inactive: 0.982
2,COc1cccc(C(=O)Nc2ccc3c(c2)C(=O)N(C)[C@@H]2CC[C@@H](CC(=O)NCC4CC4)O[C@H]2CO3)c1,inactive: 1.01
3,Cc1noc(C)c1NC(=O)N(C)C[C@H]1Oc2ccc(NC(=O)CCN3CCOCC3)cc2C(=O)N([C@H](C)CO)C[C@H]1C,inactive: 1.04
4,C[C@@H]1CCCCO[C@@H](CN(C)Cc2ccc3c(c2)OCO3)[C@@H](C)CN([C@H](C)CO)C(=O)c2cc(NC(=O)CCC(F)(F)F)ccc2O1,inactive: 1
5,COc1ccc(NC(=O)Nc2ccc3c(c2)C(=O)N([C@@H](C)CO)C[C@@H](C)[C@H](CN(C)S(=O)(=O)c2c(C)noc2C)OCCCC[C@@H](C)O3)cc1,inactive: 1.07
6,Cc1noc(C)c1NC(=O)Nc1ccc2c(c1)CC(=O)N([C@@H](C)CO)C[C@H](C)[C@@H](CN(C)S(=O)(=O)c1c(C)noc1C)O2,inactive: 0.988
7,Cc1noc(C)c1NC(=O)Nc1cccc2c1O[C@@H](CN(C)S(C)(=O)=O)[C@H](C)CN([C@H](C)CO)C2=O,inactive: 0.99
8,Cc1ccc(S(=O)(=O)Nc2cccc3c2O[C@H](CN(C)C(=O)Nc2ccc(C(F)(F)F)cc2)[C@@H](C)CN([C@H](C)CO)C3=O)cc1,inactive: 0.983
9,CC1(C)C=C(C(=O)N2CCOCC2)C(C)(C)N1,inactive: 1.02
10,CC(C)(O)C#Cc1cccc(-c2nc(C(=O)NCCCN3CCOCC3)cc3c2[C@@H](CCO)N(S(=O)C(C)(C)C)C3)c1 (stereo partly specified),inactive: 0.982
11,COc1ccc(-c2cnc3c(c2)C(=O)N([C@H](C)CO)C[C@H](C)[C@H](CN(C)S(=O)(=O)c2ccccc2)O3)cc1,inactive: 1.01
12,CCCNC(=O)Nc1ccc2c(c1)C(=O)N(C)C[C@H](OC)[C@@H](C)CN(C(=O)C1CCOCC1)[C@@H](C)CO2,inactive: 1
13,Cc1ccc(S(=O)(=O)N2C[C@@H](O)COC[C@@H]3O[C@H](CC(=O)N[C@@H]4CCN(Cc5ccccc5)C4)CC[C@H]32)cc1,inactive: 0.983
14,C[C@@H]1CCCCO[C@H](CN(C)Cc2ccc(C(=O)O)cc2)[C@@H](C)CN([C@H](C)CO)C(=O)c2cc(NC(=O)Nc3ccccc3)ccc2O1,inactive: 1.01
15,NCc1cccc2nsnc12,inactive: 1.02
16,C[C@H](CO)N1C[C@H](C)[C@@H](CN(C)C(=O)c2cnccn2)Oc2ncc(C#CCC3CCCC3)cc2C1=O,inactive: 1.01
17,C[C@@H]1CN([C@H](C)CO)S(=O)(=O)c2ccc(-c3ccc(C(=O)N(C)C)cc3)cc2O[C@@H]1CN(C)C(=O)Cc1ccccn1,inactive: 0.987
18,Cc1cc(-c2cccs2)cc(C)n1,inactive: 0.904
19,C[C@@H]1CN([C@H](C)CO)C(=O)c2cc(NC(=O)Cn3cnnn3)ccc2O[C@H]1CN(C)S(=O)(=O)c1ccc(F)cc1,inactive: 0.998
20,COc1ccc(S(=O)(=O)Nc2ccc3c(c2)CC(=O)N([C@@H](C)CO)C[C@H](C)[C@H](CN(C)S(C)(=O)=O)O3)cc1,inactive: 0.981
21,C[C@@H]1CCCCO[C@@H](CN(C)C(=O)Nc2ccc(F)cc2)[C@@H](C)CN([C@@H](C)CO)C(=O)c2cc(NC(=O)NC3CCCCC3)ccc2O1,inactive: 1.02

row,SMILES,relative growth
1,c1csc(Cn2cccc2)c1,inactive: 1.07
2,COc1ccc(NC(=O)Nc2ccc3c(c2)C(=O)N([C@H](C)CO)C[C@@H](C)[C@H](CN(C)S(=O)(=O)c2c(C)noc2C)OCCCC[C@H](C)O3)cc1,inactive: 1.01
3,CCCN(C)C[C@H]1OCCCC[C@@H](C)Oc2ccc(NS(C)(=O)=O)cc2C(=O)N([C@@H](C)CO)C[C@H]1C,inactive: 1.01
4,COCC(=O)N(C)C[C@H]1Oc2cc(C#CCN(C)C)ccc2S(=O)(=O)N([C@@H](C)CO)C[C@@H]1C,inactive: 0.809
5,Cc1noc(C)c1NC(=O)Nc1ccc2c(c1)C(=O)N([C@H](C)CO)C[C@H](C)[C@H](CN(C)CC1CC1)OCCCC[C@@H](C)O2,inactive: 0.999
6,C[C@H](CO)N1C[C@H](C)[C@H](CN(C)S(=O)(=O)c2cccs2)OCCCC[C@H](C)Oc2ccc(NC(=O)Nc3ccc(F)cc3)cc2C1=O,inactive: 1.01
7,C[C@@H]1CN([C@@H](C)CO)C(=O)c2cc(C#Cc3cccnc3)cnc2O[C@@H]1CN(C)S(C)(=O)=O,inactive: 0.973
8,Cc1noc(C)c1NC(=O)Nc1ccc2c(c1)C(=O)N([C@@H](C)CO)C[C@H](C)[C@H](CN(C)S(=O)(=O)c1ccc(Cl)cc1)OCCCC[C@@H](C)O2,inactive: 0.975
9,C[C@H]1CN([C@@H](C)CO)C(=O)c2cc(NC(=O)C3CC3)ccc2O[C@@H]1CN(C)Cc1ccc(-c2ccccc2)cc1,inactive: 1.03
10,COCC(=O)N1C[C@H](C)[C@@H](OC)CN(C)C(=O)c2cc(NC(=O)Nc3ccccc3)ccc2OC[C@H]1C,inactive: 0.997
11,C[C@H](CO)N1C[C@H](C)[C@H](CN(C)C(=O)Nc2ccc(C(F)(F)F)cc2)Oc2ccc(NS(C)(=O)=O)cc2C1=O,inactive: 0.986
12,COc1ccccc1NC(=O)N(C)C[C@H]1Oc2cc(Br)ccc2S(=O)(=O)N([C@H](C)CO)C[C@@H]1C,inactive: 1.01
13,C[C@H](CO)N1C[C@H](C)[C@@H](CN(C)C(=O)c2ccccc2)OCCCC[C@H](C)Oc2ccc(NS(=O)(=O)c3cccs3)cc2C1=O,inactive: 0.995
14,C[C@@H]1CN([C@H](C)CO)C(=O)CCCn2nncc2CO[C@H]1CN(C)S(=O)(=O)c1cn(C)cn1,inactive: 0.986
15,O=c1ccn([C@H]2O[C@H](CO)[C@@H](O)[C@@H]2O)c(=S)[nH]1,inactive: 0.867
16,C[C@@H]1CN([C@@H](C)CO)C(=O)c2cc(NC(=O)Nc3ccc(F)cc3)ccc2O[C@@H]1CN(C)S(C)(=O)=O,inactive: 1.05
17,CCn1nnc2c(=S)nc[nH]c21,inactive: 0.969
18,O=C(Nc1ccc(C(F)(F)F)cc1)Nc1ccc2c(c1)[C@H]1C[C@H](CC(=O)N3CCc4ccccc4C3)O[C@H](CO)[C@H]1O2,inactive: 1.02
19,C[C@@H]1CCCCO[C@H](CN(C)C(=O)c2ccccc2)[C@@H](C)CN([C@@H](C)CO)C(=O)c2cc(NS(=O)(=O)c3cccs3)ccc2O1,inactive: 1
